Experimental data reported in the supplement of paper PMC3334620.
Over roughly 33,000 sequences, “E-score (-0.5 to 0.5)” has its median near -0.056; the highest 2% begin near 0.38. This is one part of the list.

What follows are sequences tested against Stb4 (UniProt P50104) (assay: PBM E-score (8-mer binding enrichment) (E-score (-0.5 to 0.5)); higher = stronger / more preferred TF binding; most listed sequences are background and not binding sites). Conditions: protein concentration: 200 nM; construct: GST-DNA-binding domain.
Outline: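 Universal all-10-mer Agilent arrays, double-stranded by primer extension on fresh or once-stripped slides, were probed with about 100-200 nM GST-tagged yeast transcription factors made by PURExpress. Fluorescent anti-GST detected bound protein, and masliner normalised the scans. E-scores from the Universal PBM Analysis Suite were given to each ungapped eight-base word pooled with its reverse complement.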

| Sequence | PBM E-score |
| --- | --- |
| ACTCTAAT | -0.203 |
| GCAGCAAA | -0.117 |
| GGGATTGA | -0.0318 |
| CGGGGGGC | 0.0311 |
| CACGTGTC | -0.165 |
| GGGCCCAA | -0.0507 |
| CGGTGTCC | 0.15 |
| AAGATAAC | -0.0237 |
| TGCCCTAA | -0.195 |
| ACTTTTTA | -0.153 |
| GCAGCGCC | -0.0264 |
| ACGTAGCT | -0.34 |
| GGCGTGTA | -0.049 |
| ATCGTAAA | -0.279 |
| GCAACGCA | -0.0257 |
| CTGGGTGA | -0.0308 |
| AGAGCAAT | -0.174 |
| AAGAGCGG | 0.12 |
| TCACCCGA | 0.407 |
| CACCTTTC | 0.0203 |
| ATATTTAA | -0.0566 |
| GACATTGC | -0.107 |

| Sequence | PBM E-score |
| --- | --- |
| ATGGTCCC | -0.126 |
| CGGTACTC | 0.155 |
| GCATAAAC | 0.0326 |
| ATCCTGTC | 0.103 |
| AACATAGT | -0.0823 |
| ATAGCTCA | -0.215 |
| CACTAAGA | -0.242 |
| CGGGCCAA | 0.168 |
| AAAAAGAC | -0.0725 |
| AGCTGATA | -0.047 |
| TCAGACGA | -0.138 |
| AAGAGGAC | -0.18 |
| CACATCAC | -0.0222 |
| CTAAGTAC | -0.0951 |
| GCGCAAGC | -0.251 |
| ACACCAGC | -0.183 |
| ACGCTTAA | -0.217 |
| TAGACTCA | -0.0962 |
| ACTCGGTC | 0.204 |
| TACCATCA | -0.168 |
| ATAATAAA | -0.0519 |
| CGCTTTGA | -0.0214 |

| Sequence | PBM E-score |
| --- | --- |
| AGGGGACC | -0.211 |
| GCCTACTA | -0.226 |
| ATTAGTTG | -0.204 |
| CTAATACC | 0.13 |
| ACTAGTCC | -0.0909 |
| AACTCGCG | -0.00482 |
| GGGTAAGA | 0.0992 |
| CGGTAAAC | 0.163 |
| AATGGCGC | 0.00122 |
| AAGGTGGA | -0.12 |
| AGACATCG | -0.0825 |
| ATCCTGAA | 0.0113 |
| ATGCCAAA | -0.302 |
| CGATTACA | -0.0274 |
| CACAGCAA | -0.0864 |
| ACTGCTAT | -0.154 |
| GTCCCCGA | 0.288 |
| CGACTCAA | 0.167 |
| CGACGTAA | 0.16 |
| ACCGGTAT | 0.0767 |
| CGTCGCGA | 0.0945 |
| ACCTGGCT | -0.231 |

| Sequence | PBM E-score |
| --- | --- |
| AACATGAC | -0.101 |
| TCGGCTCA | 0.323 |
| GCCATGGA | -0.273 |
| GAGTACGA | 0.0531 |
| GCAGTATA | 0.0811 |
| AGTCCATC | -0.0379 |
| TATCGGAA | 0.431 |
| CTAGCGAC | -0.126 |
| AATCCCAG | -0.0543 |
| GTGCCCTA | -0.202 |
| GTCGCTTA | -0.00637 |
| GATTGCCC | -0.0825 |
| CGTTTGTC | -0.111 |
| ACTGCTTC | -0.0772 |
| CTAACCAC | -0.0981 |
| AGGACTAG | -0.29 |
| GATGCACC | 0.0232 |
| AGACTGAT | -0.14 |
| GGTCGGTA | 0.223 |
| CGGGGGCC | 0.152 |
